Laboratory results published in publication PMC2120312 (The Journal of Cell Biology, 1994).

Target: the molecule itself
Assay: SEC + native gel or EMSA

B1: TER ATPase (transitional endoplasmic reticulum ATPase of rat liver) (enzyme)
chain: not shown
stoichiometry N: 6
